Reference: publication PMC4336329 (PLoS ONE, 2015)
Screen size: about 310,000 compounds; about 2,200 (0.71%) showed an effect of 50% or more. Effects have a minus sign here. The list shows a part of the results.

target: human ether-à-go-go-related gene (hERG) potassium channel (human, UniProt Q12809); assay: primary screen, population patch clamp on CHO cells stably expressing hERG
Sequence (Q12809 whole entry, looked up): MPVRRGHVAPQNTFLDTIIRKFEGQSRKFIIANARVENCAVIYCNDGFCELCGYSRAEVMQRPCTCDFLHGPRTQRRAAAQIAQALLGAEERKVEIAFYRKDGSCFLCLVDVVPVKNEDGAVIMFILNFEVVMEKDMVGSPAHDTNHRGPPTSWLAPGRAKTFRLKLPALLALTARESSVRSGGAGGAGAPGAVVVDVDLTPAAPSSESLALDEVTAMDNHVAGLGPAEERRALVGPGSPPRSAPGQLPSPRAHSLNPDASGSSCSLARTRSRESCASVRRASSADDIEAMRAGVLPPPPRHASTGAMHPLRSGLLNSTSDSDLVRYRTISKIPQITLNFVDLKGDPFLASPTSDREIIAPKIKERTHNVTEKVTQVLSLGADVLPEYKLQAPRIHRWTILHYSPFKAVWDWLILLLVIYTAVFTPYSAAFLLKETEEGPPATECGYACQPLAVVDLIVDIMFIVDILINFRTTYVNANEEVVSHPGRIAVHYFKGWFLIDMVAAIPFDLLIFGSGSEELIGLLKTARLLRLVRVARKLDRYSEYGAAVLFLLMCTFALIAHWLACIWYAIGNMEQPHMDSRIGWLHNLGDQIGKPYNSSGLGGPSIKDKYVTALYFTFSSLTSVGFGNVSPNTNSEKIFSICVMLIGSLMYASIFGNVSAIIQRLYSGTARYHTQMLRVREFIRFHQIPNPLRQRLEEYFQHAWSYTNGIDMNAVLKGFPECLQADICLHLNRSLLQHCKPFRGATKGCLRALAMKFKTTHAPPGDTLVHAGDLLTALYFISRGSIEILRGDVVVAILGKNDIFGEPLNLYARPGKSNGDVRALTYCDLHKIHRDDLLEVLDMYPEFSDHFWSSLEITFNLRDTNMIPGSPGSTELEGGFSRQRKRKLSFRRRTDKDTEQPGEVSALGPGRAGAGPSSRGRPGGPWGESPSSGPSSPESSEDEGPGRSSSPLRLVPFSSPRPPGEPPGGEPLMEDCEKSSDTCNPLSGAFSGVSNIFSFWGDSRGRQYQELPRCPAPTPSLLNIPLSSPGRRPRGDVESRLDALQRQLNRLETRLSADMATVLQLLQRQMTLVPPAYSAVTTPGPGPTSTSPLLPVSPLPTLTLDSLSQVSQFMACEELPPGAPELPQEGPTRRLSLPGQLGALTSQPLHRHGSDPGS

| SMILES | hERG current change (%, negative = inhibition) at 1uM |
| --- | --- |
| O=C(Nc1ccccc1)N(C1=NCCC1)c1ccccc1 | 5.03% |
| O=C(CN1CCN(c2ccccc2O)CC1)Nc1ccnn1C1CCCC1 | 11% |
| COc1ccc(C(CNC(=O)Cn2[nH]c(=O)c3ccccc3c2=O)N2CCCC2)cc1 (centres unmarked) | 10.5% |
| O=C(COC(=O)C1CCCC1)Nc1ncc(Cl)cc1Cl | 10.6% |
| O=C(N/C(=C/c1ccccc1)C(=O)N1CCCCCC1)c1ccccc1 | 3.92% |
| COc1ccc(NC(=O)COC(=O)C2CCC2)cc1Cl | 1.51% |
| CC1=C(C(=O)OCC2CCCO2)C(c2ccsc2)C2=C(CCCC2=O)N1 (centres unmarked) | -0.424% |
| COCc1cc(=O)[nH]c(/N=C(\N)Nc2c(F)cccc2F)n1 | 5.55% |
| COc1ccc(CNC(=O)/C(C#N)=C/c2cccc(OC)c2OC)cc1 | 3.56% |
| O=C(CN1C(=O)c2ccccc2S1(=O)=O)NCCSC1CCCCC1 | -8.06% |
| CCC(=O)N1CCc2cc(S(=O)(=O)NCCCN(CC)Cc3ccccc3)ccc21 | 5.37% |
| COc1ccc(OC)c(NC(=O)c2cccc3c2C(=O)N(C2CCCCC2)C3)c1 | 11.7% |
| O=C(CN1C(=O)CSc2ccc(S(=O)(=O)N3CCOCC3)cc21)NCc1ccc(F)cc1 | 3.87% |
| CN(C)NC(=S)Nc1ccc(S(=O)(=O)N2CCCCC2)cc1 | 5% |
| Nc1nonc1-n1nnc(C(=O)N/N=C/c2ccc(F)cc2)c1-c1cccs1 | 12.4% |
| Cc1cc(NC(=O)c2cccc(S(=O)(=O)N3CCOCC3)c2)no1 | 19.1% |
| CCc1ccc(S(=O)(=O)NC(CC(=O)O)c2ccccc2)cc1 (centres unmarked) | 5.12% |
| COc1ccc(OC)c(C(c2nnnn2CCC(C)C)N2CCN(C(=O)c3ccco3)CC2)c1 (centres unmarked) | -16% |
| CCc1nc2ccccc2n1CC(=O)N1CCN(S(=O)(=O)c2cccc(C(F)(F)F)c2)CC1 | 8.98% |
| CC(OC(=O)Cn1cnc2c1c(=O)n(C)c(=O)n2C)C(=O)Nc1ccc(Cl)cc1 (centres unmarked) | 5.77% |
| CCc1cc(C(=O)Cc2nc3ccccc3s2)c(O)cc1OCC(=O)O | 11% |
| COc1ccccc1Nc1nnc(SCC(=O)NC2CC2)s1 | 1.23% |
| COc1ccc(NC(=O)c2cccnc2N2CCOCC2)cc1 | 21.2% |

| SMILES | hERG current change (%, negative = inhibition) at 1uM |
| --- | --- |
| COc1ccc(NC(=O)CCNC(=O)Cn2ccc3ccccc3c2=O)cc1Cl | 14.2% |
| CC1CCCN(C(=O)CSCC(=O)N=c2sc3ccccc3n2C)C1 (centres unmarked) | 8.59% |
| Cc1cccc(C(=O)NCc2nnc(SCC(=O)Nc3nncs3)n2C)c1 | 1.07% |
| CCOc1ccc(NC(=O)c2ccc(NC(=O)c3ccc(CN4CCOCC4)cc3)cc2)cc1 | 2.16% |
| CCCCn1c(N)c(N(CCOC)C(=O)CSc2ccc([N+](=O)[O-])cc2)c(=O)[nH]c1=O | 2.6% |
| Cc1ccc(C)c(NC(=O)c2cc(-c3cc(C)c(C)cc3O)n[nH]2)c1 | 9.66% |
| O=C(NC1CCCCC1)C(=O)c1c[nH]c2ccccc12 | 0.628% |
| S=C1CCC(c2ccc(Br)cc2)=NN1c1ccccc1 | -0.47% |
| O=C(Nc1ccc(Cl)cc1)N(CCCN1CCOCC1)Cc1cccs1 | -55% |
| COC(=O)c1ccc(NC(=O)CSc2nnc(C)n2-c2ccccc2)cc1 | 7.59% |
| O=C(COc1ccccc1)Nc1ccccc1N1CCCCC1 | 6.54% |
| CC1=NN(Cc2ccccc2)C(=O)C1C(c1ccc(Cl)cc1)C(C#N)C#N (centres unmarked) | 20.9% |
| O=C(O)c1cccc(N/N=C/c2ccc(OC(F)(F)F)cc2)c1 | 11.5% |
| CCCCn1c(C)cc(/C=C(\C#N)C(=O)O)c1C | -49.3% |
| CC(=O)c1ccc(N2CCN(CC(=O)N(C3CC3)C3CCS(=O)(=O)C3)CC2)c(F)c1 (centres unmarked) | -0.135% |
| O=C1c2ccccc2C(O)N1c1cccnc1 (centres unmarked) | 18.8% |
| Cc1cccc(NC(=O)NNC(=O)c2nn(C)cc2Br)c1 | 4.25% |
| Cc1ccc(OCc2csc(N)n2)cc1 | 7.32% |
| COc1cc2c(ccc3cc(OC)c(OC)c(O)c32)cc1O | 14.6% |
| CC(C)(C)NC(=O)c1ccc(NC(=O)CSc2ccccc2)cc1 | 9.49% |
| c1coc(-c2ncc[nH]2)c1 | 8.42% |
| CC(C)NC(=O)C(Sc1ccccc1)c1ccccc1 (centres unmarked) | 16.5% |
| COc1ncnc2c1N[C@@](C)(O)c1c(F)c(F)c(F)c(F)c1S2 | 12.9% |

| SMILES | hERG current change (%, negative = inhibition) at 1uM |
| --- | --- |
| CC(C)c1ccc(NC(=O)N2CCC(c3nc4ccccc4o3)CC2)cc1 | -13.7% |
| O=C(Cc1ccccc1)c1c[nH]c(C(=O)NCc2ccncc2)c1 | 5.87% |
| Cc1occc1C(=O)Nc1cc(=O)n(C)c(=O)n1C | 12.4% |
| CCn1c(SCC(=O)N/N=C/c2ccccc2OCC(=O)O)nnc1-c1ccc(C(C)(C)C)cc1 | 11.9% |
| Cc1cccc(OCC(=O)N2CCc3ccccc3C2)c1 | 13.9% |
| COc1ccc(N2CCN(CCNC(=O)CCC(=O)NNc3nc4ccccc4c4nc(C)nn34)CC2)cc1 | -3.6% |
| N#CC(=C1CCCC1)c1nc(-c2ccccc2)cs1 | 11.9% |
| CN1CCN(CC(O)(c2ccc(Cl)cc2)c2ccc(Cl)cc2)CC1 | -49.5% |
| COc1ccc(NC(=O)CSCC(=O)Nc2ccc(S(=O)(=O)N3CCCCC3)cc2)cc1 | -9.44% |
| C=CCN1CC2CC3(COc4cc(C)cc(C)c4)C=CC2(O3)C1=O (centres unmarked) | 5.04% |
| CC(=O)Nc1ccc(/C=C/C(=O)c2ccccc2)cc1 | 11.6% |
| Cc1cc(NC(=O)CC2CCCC2)n(-c2nc3ccccc3[nH]2)n1 | -5.12% |
| c1ccc(OCc2nn3c(-c4ccccn4)nnc3s2)cc1 | 12.2% |
| CC1COc2ccccc2N1C(=O)c1cccnc1Cl (centres unmarked) | 18.3% |
| CCN1CCN(c2c(Cl)cccc2NC(=O)c2ccc([N+](=O)[O-])cc2)CC1 | -15.9% |
| Cc1ccc(OCc2cc(C(=O)NC3CCc4ccccc43)no2)cn1 (centres unmarked) | 13.8% |
| COc1ccc(NC(=S)NCCSc2ccc(C)cc2)c(OC)c1 | 12.6% |
| O=C(/C=C/NNC(=O)c1ccccc1)c1ccc([N+](=O)[O-])cc1 | 2.79% |
| COc1ccc(-c2nc(NC(=O)C3=NN(c4cccc(C)c4)C(=O)CC3)sc2C)cc1 | 3.79% |
| COCC(=O)N(c1ccc(C(C)C)cc1)C1C=CS(=O)(=O)C1 (centres unmarked) | 18.2% |
| CCCCn1c(SCC(=O)OC)nc2c1c(=O)n(C)c(=O)n2C | 3.17% |
| CCOC(=O)c1ccc(CNC(=O)c2cc(COc3ccccc3SC)on2)o1 | -2.59% |
| COc1cc(SC#N)ccc1N=Cc1c(C)[nH]n(-c2ccc(C)cc2C)c1=O | 2.31% |

| SMILES | hERG current change (%, negative = inhibition) at 1uM |
| --- | --- |
| CCOc1cc(CNc2ccc(N3CCOCC3)cc2)cc(Br)c1OCC | 17.2% |
| CCOc1ccc(CC(=O)NNC(=O)NC2CCCCC2)cc1 | 14.2% |
| CN(C)c1cc[n+](CC(=O)N2c3ccccc3Sc3ccccc32)cc1.[Cl-] | 3.77% |
| O=C(O)C1Cc2ccccc2CN1C(=O)COc1ccc(Cl)cc1Cl (centres unmarked) | 10% |
| CC1=CC(C)(C)N(C(=O)CN2C(=O)c3ccccc3C2=O)c2ccccc21 | 7.7% |
| NC[C@H](O)c1ccc(O)c(O)c1.O.O=C(O)C(O)C(O)C(=O)O | 8.62% |
| NN/C(=C\[N+](=O)[O-])Nc1ccc(Cl)cc1 | 18.9% |
| Cc1ccc(C(=O)COC(=O)CNC(=O)c2ccc(N3C(=O)c4ccccc4C3=O)cc2)cc1C | 11.6% |
| CCOc1ccccc1OCC(=O)OCC(=O)c1c(N)n(CC(C)C)c(=O)n(C)c1=O | -9.86% |
| CC1CCN(c2oc(-c3cccc4ccccc34)nc2C#N)CC1 | 10.2% |
| Cc1ccc(OCC(=O)N2CCN(C(=O)Cc3ccccc3)CC2)cc1 | -9.66% |
| CCOc1ccc(S(=O)(=O)N2CCCC(C(=O)Nc3ccccc3)C2)cc1 (centres unmarked) | 10.6% |
| Cc1ccccc1C(=O)Nc1ccc(C(=O)O)cc1NC(=O)c1ccccc1C | 13.8% |
| CCOc1ccc(-c2csc(NC(=O)c3cccc(N4C(=O)CCC4=O)c3)n2)cc1 | 13.5% |
| Cc1cccc(-c2ncc(S(=O)(=O)C(C)(C)C)c(N)n2)c1 | 11.7% |
| O=C(Nc1ccnc(-c2ccncc2)n1)c1cccs1 | -5.67% |
| COc1ccccc1/C=C/C=c1\sc2nc(=O)c(Cc3ccccc3)nn2c1=O | 12.4% |
| Cc1cc(NC(=O)c2cnn3cccnc23)nn1CC(=O)Nc1cccnc1 | 8.53% |
| N#Cc1cccc(C(=O)Nc2cccc(S(=O)(=O)N3CCCC3)c2)c1 | 8.83% |
| O=S(=O)(Nc1ccc(S(=O)(=O)Nc2cccc3ccccc23)cc1)c1ccccc1 | 11% |
